From PMC4336329 (PLoS ONE, 2015) come the findings set out here.

Hit rate of the full screen: of about 310,000 compounds, about 14,000 (4.5%) showed an effect of 50% or more. Effects have a minus sign here. Some of the results follow.
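Note: peak tail current of the secondary pulse compared with the same well before compound.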

Chain of human ether-à-go-go-related gene (hERG) potassium channel (Q12809 whole entry, looked up): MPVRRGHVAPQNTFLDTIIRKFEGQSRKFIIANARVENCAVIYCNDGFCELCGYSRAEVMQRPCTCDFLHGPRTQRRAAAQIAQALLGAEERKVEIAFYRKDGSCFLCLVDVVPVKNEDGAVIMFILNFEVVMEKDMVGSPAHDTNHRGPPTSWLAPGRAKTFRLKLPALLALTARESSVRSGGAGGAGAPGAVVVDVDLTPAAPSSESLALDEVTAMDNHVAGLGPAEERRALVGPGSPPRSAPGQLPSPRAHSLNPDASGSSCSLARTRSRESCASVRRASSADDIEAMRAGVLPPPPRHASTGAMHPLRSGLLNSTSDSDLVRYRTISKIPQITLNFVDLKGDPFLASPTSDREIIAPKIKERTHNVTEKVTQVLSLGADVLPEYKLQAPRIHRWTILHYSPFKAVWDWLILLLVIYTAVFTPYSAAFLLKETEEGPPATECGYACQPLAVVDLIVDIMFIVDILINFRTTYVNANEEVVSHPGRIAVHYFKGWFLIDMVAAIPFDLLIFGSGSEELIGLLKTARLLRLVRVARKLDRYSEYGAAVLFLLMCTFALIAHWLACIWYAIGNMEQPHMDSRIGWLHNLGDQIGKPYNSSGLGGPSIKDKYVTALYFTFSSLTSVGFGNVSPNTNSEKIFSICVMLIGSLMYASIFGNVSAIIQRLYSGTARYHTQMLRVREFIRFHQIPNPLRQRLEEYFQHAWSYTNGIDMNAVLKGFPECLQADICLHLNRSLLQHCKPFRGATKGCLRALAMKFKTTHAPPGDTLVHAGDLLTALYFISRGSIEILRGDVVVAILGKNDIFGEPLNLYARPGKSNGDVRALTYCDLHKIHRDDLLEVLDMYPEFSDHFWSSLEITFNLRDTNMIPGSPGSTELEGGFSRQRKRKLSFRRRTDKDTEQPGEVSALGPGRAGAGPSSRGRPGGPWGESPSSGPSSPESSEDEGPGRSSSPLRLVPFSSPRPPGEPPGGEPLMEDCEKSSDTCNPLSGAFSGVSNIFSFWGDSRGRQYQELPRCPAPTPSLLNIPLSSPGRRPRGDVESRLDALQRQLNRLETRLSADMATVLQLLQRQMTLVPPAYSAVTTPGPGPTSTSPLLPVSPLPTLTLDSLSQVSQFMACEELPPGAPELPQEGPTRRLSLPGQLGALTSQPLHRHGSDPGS

The experiment concerns the target human ether-à-go-go-related gene (hERG) potassium channel (human, UniProt Q12809). As to the kind of experiment: primary screen, population patch clamp on CHO cells stably expressing hERG.
`O=[N+]([O-])c1ccccc1/C=C/CN1CCCCC1`: the “hERG current change (%, negative = inhibition) at 10uM” value is on record as -6.44%.
The same measure for `CCc1ccc(N2C(=O)CN(CC(=O)OC)C2=S)cc1`: 9.74%.
Turning to `CC[N+](C)(C)Cc1ccccc1Br.Cc1ccc(S(=O)(=O)[O-])cc1`, the “hERG current change (%, negative = inhibition) at 10uM” value amounted to 21.3%.
In the case of `Cn1nnnc1SCC(=O)NNC(=O)c1ccc(Br)cc1`, the “hERG current change (%, negative = inhibition) at 10uM” value was 7.32%.
Under `CC(/C=C/c1ccc2c(c1)OCO2)=N\NC(=O)c1cccc([N+](=O)[O-])c1` stands -3.5%; under `CCC(C)C(=O)Nc1ccc(S(=O)(=O)N2CCCC2)cc1` (stereo not shown), 19.5%.
As to `Cc1[nH]c(C)c(S(=O)(=O)NCCc2ccccc2)c1C(=O)N1CCCCC1`, the “hERG current change (%, negative = inhibition) at 10uM” value is reported as -8.31%.
Take `CC(C(=O)N1CCOCC1)c1ccccc1` (stereo not shown): the “hERG current change (%, negative = inhibition) at 10uM” value is reported as 16.5%.
As for `CN(C)C(=O)N1CCC(C(=O)NCc2cccs2)CC1`, the “hERG current change (%, negative = inhibition) at 10uM” value is given as 6.81%.
For the molecule `O=C(COC(=O)CSc1ccc([N+](=O)[O-])cc1)NCc1cccs1`, the “hERG current change (%, negative = inhibition) at 10uM” value was found to be 2.31%.
As for `NC(=O)[C@H](Cc1cc2ccccc2s1)NC(=O)[C@@H]1CC2(CC(c3cccc(NC(=O)[C@@H]4CCC(=O)N4)c3)=NO2)CN1C(=O)/C=C/c1c(F)cccc1Cl` (stereo partly shown), the “hERG current change (%, negative = inhibition) at 10uM” value is given as 8.52%.
Regarding `CC12CN3CC(C)(CN(C1)C3c1ccc(Br)cc1)C2` (stereo not shown), the “hERG current change (%, negative = inhibition) at 10uM” value is given as -34.6%.
As for `CC1C(=O)CC(c2ccccc2)N(C)C1c1ccccc1` (stereo not shown), the “hERG current change (%, negative = inhibition) at 10uM” value is -4.45%.
For the molecule `NS(=O)(=O)c1ccc(CCNC(=O)CCCC2=NS(=O)(=O)c3ccccc3N2)cc1`, the “hERG current change (%, negative = inhibition) at 10uM” value is on record as 25.6%.
Under `Cc1ccc(C(=O)NNC(=O)C(C)Sc2nc(N)cc(N)n2)cc1` (stereo not shown) stands -5.97%; under `CC(C)c1cc(O)c(-c2ccccc2)c(=O)n1-c1ccc(Cl)cc1`, 7.93%; under `Fc1cccc(CSc2ccc(-c3ccco3)nn2)c1`, 6.59%.
Take `Cc1c(Cl)cccc1NC(=O)Nc1ccn(C)n1`: the “hERG current change (%, negative = inhibition) at 10uM” value is 5.52%.
Under `O=C(CCC(=O)N/N=C/c1cc(Cl)cc(Cl)c1O)NCc1ccccc1` stands 16.9%; under `COc1cccc(NC(=O)CSc2nnc(-c3ccc(C)cc3)o2)c1`, 2.14%.
With `Cc1cc(C)nc(NS(=O)(=O)c2ccc(NC(=O)c3ccc(S(=O)(=O)N4CCOCC4)cc3)cc2)n1`, the “hERG current change (%, negative = inhibition) at 10uM” value is -0.968%.
The same measure for `Cc1ccc(S(=O)(=O)Cc2cc(F)c([N+](=O)[O-])cc2[N+](=O)[O-])cc1`: -14.3%; for `O=C(Cn1nnc(-c2ccccc2NC(=O)c2ccccc2)n1)Nc1ccc2c(c1)OCCO2`: 1.49%.
Under `Cc1nn(C)cc1/C=N/NC(=S)Nc1ccc(Cl)cc1Cl` stands 20.5%; under `COc1cccc(CNC(=O)COc2cc(O)c3c(c2)OC(C)(C)CC3=O)c1`, -8.35%.
Under `CSc1ccccc1C(=O)Nc1cc(C)ccc1C` stands -20.1%; under `CCCCc1nc2cc(C(=O)N3CCCC(COC)C3)ccc2o1` (stereo not shown), -9.75%.
As for `COc1ccccc1CN1CC(C(=O)N2CCC(C(=O)c3ccccc3)CC2)CCC1=O` (stereo not shown), the “hERG current change (%, negative = inhibition) at 10uM” value is recorded as -14.4%.
As for `CC(C)c1ccc(NC2CCCN(C(=O)c3ccnc(Cl)c3)C2)cc1` (stereo not shown), the “hERG current change (%, negative = inhibition) at 10uM” value is on record as -4.89%.
As to `CC(C)N1C(=O)CC2(CC[N+](C)(CCOC(=O)C(c3ccccc3)c3ccccc3)CC2)C1=O.[I-]` (stereo not shown), the “hERG current change (%, negative = inhibition) at 10uM” value worked out at 5.21%.
The same measure for `O=C(Nc1ccc(Br)cc1)c1cccn1-c1ncc(C(F)(F)F)cc1Cl`: 3.91%; for `CC(C)CN(C(=O)CN(C)C(=O)c1ccco1)c1c(N)n(CC(C)C)c(=O)[nH]c1=O`: 18.8%.
`CNc1c([N+](=O)[O-])cnn1-c1ccccc1F`: the “hERG current change (%, negative = inhibition) at 10uM” value came out at 9.49%.
Under `Cc1ccsc1CN1CC(=O)N(c2c(C)cccc2C)C1=S` stands -31.3%; under `CN1CCN(c2ccc(S(=O)(=O)N3CCOCC3)cc2NC(=O)CC(C)(C)C)CC1`, 8.55%.
The same measure for `NNC(=O)c1cccc(COCC(F)(F)C(F)F)c1`: -2.32%.
The same measure for `O=C(Nc1ccc(F)cc1F)c1csc(-c2ccncc2)n1`: -23.8%; for `O=C(NCc1cccnc1)C1CCCN(S(=O)(=O)c2ccc(Cl)cc2)C1` (stereo not shown): -26.9%.
As for `O=c1[nH]c(=S)[nH]c2c1CN(Cc1ccc(F)cc1)CC2`, the “hERG current change (%, negative = inhibition) at 10uM” value worked out at 14.8%.
Take `Cc1ccc(NC(=O)CC2SC(=NC3CCCCC3)NC2=O)cc1` (stereo not shown): the “hERG current change (%, negative = inhibition) at 10uM” value is on record as -9.82%.
Regarding `Cc1nn(Cc2c(F)c(F)c(F)c(F)c2F)c(C)c1NC(=O)c1ccc(COc2ccc(F)cc2)o1`, the “hERG current change (%, negative = inhibition) at 10uM” value is recorded as -3.92%.
As to `N#CC1=C2N=C(N)c3ccccc3N2C2=C(C(=O)CCC2)C1c1ccccc1F` (stereo not shown), the “hERG current change (%, negative = inhibition) at 10uM” value is reported as -14.9%.
Under `Cl.N=c1ccn2c(n1)O[C@H]1[C@H](O)[C@@H](CO)O[C@H]12` stands 18.7%.
